The whole screen tested about 310,000 compounds, of which about 2,200 (0.71%) showed an effect of 50% or more. Effects have a minus sign here. The list shows a part of the results.

In the assay the target is human ether-à-go-go-related gene (hERG) potassium channel (human, UniProt Q12809). The assay can be described thus: primary screen, population patch clamp on CHO cells stably expressing hERG.
human ether-à-go-go-related gene (hERG) potassium channel, sequence (Q12809 whole entry, looked up): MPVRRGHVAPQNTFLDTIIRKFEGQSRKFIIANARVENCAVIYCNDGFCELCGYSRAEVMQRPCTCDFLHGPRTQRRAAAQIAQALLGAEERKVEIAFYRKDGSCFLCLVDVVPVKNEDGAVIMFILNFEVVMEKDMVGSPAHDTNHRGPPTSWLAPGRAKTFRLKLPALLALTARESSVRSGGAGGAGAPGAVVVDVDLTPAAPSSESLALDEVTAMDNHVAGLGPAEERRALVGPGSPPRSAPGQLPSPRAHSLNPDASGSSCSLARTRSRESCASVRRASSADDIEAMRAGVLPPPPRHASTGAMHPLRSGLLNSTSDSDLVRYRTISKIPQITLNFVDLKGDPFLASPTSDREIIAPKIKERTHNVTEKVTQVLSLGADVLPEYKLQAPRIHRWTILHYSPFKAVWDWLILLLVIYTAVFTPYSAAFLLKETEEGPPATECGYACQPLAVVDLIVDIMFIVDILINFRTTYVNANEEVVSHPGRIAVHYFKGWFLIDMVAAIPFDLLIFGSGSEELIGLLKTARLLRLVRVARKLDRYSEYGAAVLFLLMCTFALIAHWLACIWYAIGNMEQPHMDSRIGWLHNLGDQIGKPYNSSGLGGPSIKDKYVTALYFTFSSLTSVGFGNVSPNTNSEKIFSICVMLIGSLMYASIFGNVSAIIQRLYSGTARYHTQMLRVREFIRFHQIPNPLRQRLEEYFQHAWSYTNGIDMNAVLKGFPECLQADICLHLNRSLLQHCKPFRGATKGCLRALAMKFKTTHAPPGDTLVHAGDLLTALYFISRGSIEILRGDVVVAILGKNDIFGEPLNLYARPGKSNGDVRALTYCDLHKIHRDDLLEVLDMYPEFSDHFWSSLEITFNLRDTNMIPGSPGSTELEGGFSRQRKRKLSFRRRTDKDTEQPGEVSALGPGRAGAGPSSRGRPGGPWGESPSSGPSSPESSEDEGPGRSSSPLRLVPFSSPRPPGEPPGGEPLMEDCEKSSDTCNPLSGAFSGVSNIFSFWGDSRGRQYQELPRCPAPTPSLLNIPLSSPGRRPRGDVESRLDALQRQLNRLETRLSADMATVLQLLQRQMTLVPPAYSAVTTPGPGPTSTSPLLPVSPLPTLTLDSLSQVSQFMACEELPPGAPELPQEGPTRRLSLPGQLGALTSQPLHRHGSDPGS
Turning to `Fc1ccc2c(c1)Sc1ccc(Cl)cc1CC2N1CCN(CCC2OCCO2)CC1` (centres unmarked), the “hERG current change (%, negative = inhibition) at 1uM” value came to 5.43%.

Take `O=C(c1ccc(Cl)c(Cl)c1)N(Cc1ccco1)c1ccc(O)cc1`: the “hERG current change (%, negative = inhibition) at 1uM” value worked out at 12%.

In the case of `O=S(=O)(c1ccc(NC(=S)NCc2ccco2)cc1)N1CCCCC1`, the “hERG current change (%, negative = inhibition) at 1uM” value stood at 13.4%.

Take `O=C1CC(N2CCN(C(c3ccccc3)c3ccccc3)CC2)C(=O)N1Cc1ccc(N2CCCC2=O)cc1` (centres unmarked): the “hERG current change (%, negative = inhibition) at 1uM” value was 9.25%.

Regarding `O=C(N/N=C/C1CC2CCC1C2)c1ccc2c(c1)OCO2` (centres unmarked), the “hERG current change (%, negative = inhibition) at 1uM” value amounted to 0.955%.

As to `CC(=O)NS(=O)(=O)c1ccc(N=NN2CCCCC2)cc1`, the “hERG current change (%, negative = inhibition) at 1uM” value was 1.53%.

In the case of `Cc1nc2ccc(Cl)cc2c(-c2ccccc2)c1C(=O)N(C)C.Cl`, the “hERG current change (%, negative = inhibition) at 1uM” value was 9.56%.

As for `CCOC(=O)CSc1[nH]c(=O)cc(C)c1C#N`, the “hERG current change (%, negative = inhibition) at 1uM” value is reported as 8.55%.

As for `O=C(NCc1cccnc1)C1CCC(c2ccc(Cl)cc2)CC1` (centres unmarked), the “hERG current change (%, negative = inhibition) at 1uM” value is 9.17%.

In the case of `O=C(NC1CCCC1)c1ccc(S(=O)(=O)N2CCOCC2)cc1`, the “hERG current change (%, negative = inhibition) at 1uM” value is on record as 6.01%.

As to `CC(=O)Cn1cnc2scc(-c3ccc(C)c(C)c3)c2c1=O`, the “hERG current change (%, negative = inhibition) at 1uM” value is on record as 16.6%.

For the compound `CCOC(=O)c1cnc2c(C)c(-c3ccccc3)[nH]n2c1=O`, the “hERG current change (%, negative = inhibition) at 1uM” value was 10.3%.

Take `COc1ccc(N2CCN(C(CNC(=O)C(=O)NCc3ccncc3)c3ccco3)CC2)cc1` (centres unmarked): the “hERG current change (%, negative = inhibition) at 1uM” value is given as -0.171%.

With `O=C(CCc1ccccc1)C(=O)N1CCCC(C(=O)c2cccc(Cl)c2)C1` (centres unmarked), the “hERG current change (%, negative = inhibition) at 1uM” value was found to be 1.94%.

Take `Cc1ccccc1CCNC(=O)c1ccc(Cl)c(S(=O)(=O)N2CC(C)OC(C)C2)c1` (centres unmarked): the “hERG current change (%, negative = inhibition) at 1uM” value is reported as -6.7%.

For `CC(C)C[C@H]1CN=C(Nc2ccccc2)N1CC(C)C`, the “hERG current change (%, negative = inhibition) at 1uM” value was found to be 7.94%.

On to `Cc1cccc(CN2CCN(CC(=O)NCCCN3CCCC3=O)C2=O)c1`, for which the “hERG current change (%, negative = inhibition) at 1uM” value came out at 11.8%.

Regarding `CSCC(=O)NC1CCCc2c1cnn2-c1ccc(C)c(C)c1` (centres unmarked), the “hERG current change (%, negative = inhibition) at 1uM” value is on record as 0.909%.

Turning to `Cc1ccc(-n2c(SCC(=O)NCc3ccco3)nnc2-c2cccnc2)c(C)c1`, the “hERG current change (%, negative = inhibition) at 1uM” value is listed as -1.18%.

As to `Cc1coc2c1c(C)cc1oc(=O)c(CC(=O)NCCCN3CCCC3=O)c(C)c12`, the “hERG current change (%, negative = inhibition) at 1uM” value is -0.708%.

In the case of `Cc1ccc(NC(=O)CN2C(=O)NC3(CCCCCC3)C2=O)cc1Cl`, the “hERG current change (%, negative = inhibition) at 1uM” value was determined as 13.6%.

As to `CCCN(CCC)S(=O)(=O)c1ccc(C(=O)Nc2nnc(-c3cccc(OC)c3)o2)cc1`, the “hERG current change (%, negative = inhibition) at 1uM” value turned out to be 14.6%.

As for `Cc1cc(=O)oc2cc(OC(C)C(=O)NCCc3ccc(S(N)(=O)=O)cc3)ccc12` (centres unmarked), the “hERG current change (%, negative = inhibition) at 1uM” value was 9.16%.

On to `Cc1ccc(/C=C/C(=O)OCC(=O)NCCN2C(=O)CSC2=O)o1`, for which the “hERG current change (%, negative = inhibition) at 1uM” value was found to be 34.3%.

Regarding `CS(=O)(=O)N(CC(=O)Nc1ccccc1)Cc1ccc(Cl)cc1`, the “hERG current change (%, negative = inhibition) at 1uM” value was -4.94%.

`O=C(CNc1ccc2ccccc2c1)N/N=C/c1cc2ccccc2nc1Cl`: the “hERG current change (%, negative = inhibition) at 1uM” value is listed as 12.9%.

As for `O=C(Nc1ccc(N2CCN(C(=O)c3ccco3)CC2)cc1)c1ccc(F)cc1`, the “hERG current change (%, negative = inhibition) at 1uM” value stood at 4.54%.

With `CCCOc1ncnc2c1sc1nc3c(cc12)COC(C)(C)C3`, the “hERG current change (%, negative = inhibition) at 1uM” value amounted to 5.61%.

For `O=C(CSc1nncs1)Nc1ccc(N2CCCCC2)cc1`, the “hERG current change (%, negative = inhibition) at 1uM” value stood at 3.47%.

Turning to `O=C(NCC#CCOCc1ccccc1)c1ccccc1`, the “hERG current change (%, negative = inhibition) at 1uM” value is reported as 9.56%.

For the compound `C/C(=N\Nc1ccc(S(=O)(=O)Nc2ccc(Cl)cc2)cc1[N+](=O)[O-])c1ccc(N2CCOCC2)cc1`, the “hERG current change (%, negative = inhibition) at 1uM” value is 4.97%.

With `Cc1cccc2c1NC(=O)C21OCC(CO)([N+](=O)[O-])CO1` (centres unmarked), the “hERG current change (%, negative = inhibition) at 1uM” value is 12.8%.

Consider `Cc1ccc(COC(=O)NCc2cccnc2)cc1`, for which the “hERG current change (%, negative = inhibition) at 1uM” value was found to be 18.3%.

As to `Cc1ccc(S(=O)(=O)N(CC(=O)N/N=C/c2cccc3c2OCCO3)c2ccccc2F)cc1`, the “hERG current change (%, negative = inhibition) at 1uM” value is given as -2.22%.

For `CC(=O)c1c(-c2ccccc2)[nH]c2ccccc12`, the “hERG current change (%, negative = inhibition) at 1uM” value was determined as 10.9%.

`COc1ccccc1CN1CC(C(=O)NCCSc2nnnn2C)CCC1=O` (centres unmarked): the “hERG current change (%, negative = inhibition) at 1uM” value stood at 17.1%.

Regarding `CSc1ccc(/C=N/NC(=O)CN2CCN(Cc3ccccc3Cl)CC2)cc1`, the “hERG current change (%, negative = inhibition) at 1uM” value is recorded as 5.23%.

As to `CC(C)c1cccc(C(C)C)c1OCCCCN1CCCC1`, the “hERG current change (%, negative = inhibition) at 1uM” value was 8.11%.

On to `COc1ccccc1Cn1c(C)nnc1-c1cnn(C)c1N`, for which the “hERG current change (%, negative = inhibition) at 1uM” value came to 5.1%.

As for `O=C(CN1C(=O)c2ccccc2C1=O)Nc1ccccc1C(=O)NC1CCCCC1`, the “hERG current change (%, negative = inhibition) at 1uM” value came out at 8.66%.

In the case of `COc1ccc(C(C)(C)C)cc1NC(=S)NCCN1CCOCC1`, the “hERG current change (%, negative = inhibition) at 1uM” value is 10.3%.

Turning to `COc1ccc(-c2c(NC(=O)c3ccco3)oc3ccccc3c2=O)cc1OC`, the “hERG current change (%, negative = inhibition) at 1uM” value was 14.5%.

Turning to `Cc1ccccc1C(=O)N(Cc1nc2ccccc2c(=O)[nH]1)C1CCCC1`, the “hERG current change (%, negative = inhibition) at 1uM” value was 4.04%.

Consider `Cc1cc(C)cc(NC(=O)Cn2c(=O)oc3cc(S(=O)(=O)N4CCC(C)CC4)ccc32)c1`, for which the “hERG current change (%, negative = inhibition) at 1uM” value was 2.6%.

Regarding `CC(SC(=S)N(C)Cc1cccs1)C(=O)O` (centres unmarked), the “hERG current change (%, negative = inhibition) at 1uM” value was 6.51%.

On to `Cl.OCc1ccccc1CNCc1ccccc1`, for which the “hERG current change (%, negative = inhibition) at 1uM” value is given as 9.84%.

Turning to `O=C(N/N=C/c1cn(-c2ccccc2)nc1-c1ccc2c(c1)OCCO2)c1ccncc1`, the “hERG current change (%, negative = inhibition) at 1uM” value is listed as 3.98%.

With `CC(=O)C1C(c2ccc(OC(F)F)cc2)NC(=O)NC1(O)C(F)(F)F` (centres unmarked), the “hERG current change (%, negative = inhibition) at 1uM” value came out at 12.8%.

On to `O=C(NCc1ccccc1Cl)c1cnc2n(c1=O)CCS2`, for which the “hERG current change (%, negative = inhibition) at 1uM” value was determined as 5.49%.

Turning to `CCN(CC)CC(=O)NN=C(c1ccccc1)c1ccccc1`, the “hERG current change (%, negative = inhibition) at 1uM” value is on record as -78.2%.

With `CN(C)Cc1ccc(F)cc1Sc1ccc(Cl)cc1Cl.Cl`, the “hERG current change (%, negative = inhibition) at 1uM” value turned out to be 13.7%.

Turning to `CC1=NCCN1S(=O)(=O)c1cc([N+](=O)[O-])ccc1Cl`, the “hERG current change (%, negative = inhibition) at 1uM” value stood at 9.27%.

For the compound `O=C(NCCCn1ccnc1)/C(=C/c1ccco1)NC(=O)c1cccs1`, the “hERG current change (%, negative = inhibition) at 1uM” value is on record as -27.4%.

As for `CS(=O)(=O)NCCSCc1ccccc1`, the “hERG current change (%, negative = inhibition) at 1uM” value was -21.4%.

In the case of `O=C(Nc1cc(S(=O)(=O)N2CCOCC2)ccc1N1CCCCC1)c1ccc(Cl)cc1`, the “hERG current change (%, negative = inhibition) at 1uM” value was found to be 16.4%.

Regarding `Cc1cccc(OCC(=O)Nc2ccc(C(=O)O)cc2NC(=O)COc2cccc(C)c2)c1`, the “hERG current change (%, negative = inhibition) at 1uM” value was 16%.

The values above are taken from paper PMC4336329 (PLoS ONE, 2015).
